Test results published in PubChem BioAssay AID1347165 (National Center for Advancing Translational Sciences (NCATS), 2019).
Values joined by “and” are separate entries in the source; they are usually repeats but may differ in a detail not shown here. Equal entries are not always repeated. Hit rate of the full screen: of about 220,000 compounds, about 5,700 (2.6%) were called active. Inconclusive means that the source gave no clear call. Such entries were picked first, then a sample of the others. The call rests on the fitted dose curve; in most records, active means well fitted inhibition curve with a large enough effect; inconclusive means small, poorly fitted or top-dose-only effect; inactive means no such curve, though single readings can be large or run the other way. A potency beside an inconclusive call is a rough fit, not a confirmed value.

Target: Lysine-specific demethylase 5B (Homo sapiens) (UniProt Q9UGL1)
Assay: Primary screen for KDM5B Histone Demethylases FDH-coupled qHTS; further: nearly all actives have a fitted effect of over 70% in size
Conditions: FDH-coupled NADH fluorescence (FDH is formaldehyde dehydrogenase); series mostly up to 57.7 µM
Outline: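 Here, H3K4me3 peptide (12.5 µM in substrate mix) is demethylated by KDM5BΔAP, 200 nM final, after 10 min compound exposure. Formaldehyde product is coupled through FDH (0.25 U/mL in mix) to NADH fluorescence; 30-min ΔRFU feeds dose-response curves.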
Potency means the concentration at half of the fitted maximal effect; tags describe the fitted curve by direction and shape.

Sequence of UniProt Q9UGL1 (Q9UGL1 whole entry, looked up): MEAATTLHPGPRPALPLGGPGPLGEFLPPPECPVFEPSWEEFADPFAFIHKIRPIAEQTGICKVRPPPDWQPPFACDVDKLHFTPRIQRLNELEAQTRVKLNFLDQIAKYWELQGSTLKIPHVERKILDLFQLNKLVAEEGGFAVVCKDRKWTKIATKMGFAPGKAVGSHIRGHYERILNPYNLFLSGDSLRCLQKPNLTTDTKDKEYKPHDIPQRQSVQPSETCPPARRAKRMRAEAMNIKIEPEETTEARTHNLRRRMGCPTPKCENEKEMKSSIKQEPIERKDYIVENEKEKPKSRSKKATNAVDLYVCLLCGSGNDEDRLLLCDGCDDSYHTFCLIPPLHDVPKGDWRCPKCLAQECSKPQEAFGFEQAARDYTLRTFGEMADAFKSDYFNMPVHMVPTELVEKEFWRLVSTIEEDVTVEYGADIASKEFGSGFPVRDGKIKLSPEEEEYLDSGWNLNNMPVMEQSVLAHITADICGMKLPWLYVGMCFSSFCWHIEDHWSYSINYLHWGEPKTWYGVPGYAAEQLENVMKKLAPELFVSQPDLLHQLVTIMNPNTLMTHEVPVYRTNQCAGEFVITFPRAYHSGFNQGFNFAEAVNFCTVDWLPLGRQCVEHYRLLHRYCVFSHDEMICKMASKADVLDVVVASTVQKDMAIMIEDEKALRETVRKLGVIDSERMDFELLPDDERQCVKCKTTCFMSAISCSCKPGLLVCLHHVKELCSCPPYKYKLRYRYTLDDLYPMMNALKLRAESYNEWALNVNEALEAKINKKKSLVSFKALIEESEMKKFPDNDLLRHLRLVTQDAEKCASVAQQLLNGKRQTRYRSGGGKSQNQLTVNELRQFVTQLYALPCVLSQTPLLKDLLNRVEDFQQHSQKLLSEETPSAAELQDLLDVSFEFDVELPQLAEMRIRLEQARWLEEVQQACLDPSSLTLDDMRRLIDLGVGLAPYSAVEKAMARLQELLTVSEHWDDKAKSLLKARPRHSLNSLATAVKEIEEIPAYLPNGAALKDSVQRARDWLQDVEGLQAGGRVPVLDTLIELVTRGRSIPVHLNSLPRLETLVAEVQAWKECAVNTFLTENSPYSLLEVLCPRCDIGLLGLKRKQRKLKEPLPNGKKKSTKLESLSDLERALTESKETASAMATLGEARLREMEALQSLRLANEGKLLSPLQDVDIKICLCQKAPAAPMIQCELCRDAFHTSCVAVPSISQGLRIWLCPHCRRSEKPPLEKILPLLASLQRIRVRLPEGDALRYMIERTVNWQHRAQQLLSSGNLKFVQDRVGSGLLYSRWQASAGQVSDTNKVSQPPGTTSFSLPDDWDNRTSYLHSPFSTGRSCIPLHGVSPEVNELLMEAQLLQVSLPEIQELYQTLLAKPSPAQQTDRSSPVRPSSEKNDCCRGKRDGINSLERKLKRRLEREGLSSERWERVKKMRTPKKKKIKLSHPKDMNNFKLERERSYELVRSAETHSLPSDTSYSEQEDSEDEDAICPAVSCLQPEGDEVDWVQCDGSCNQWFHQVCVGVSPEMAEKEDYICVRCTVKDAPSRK

SMILES | Potency
Cc1ccc(CN(C(=O)c2ccc(C(C)(C)C)cc2)c2ccccn2)o1 | inconclusive: 17.8 µM [inhibitor, partial curve, poor fit]
Cn1nc(C2CCN(C(=O)Nc3ccc(Cl)cc3)CC2)[nH]c1=O | inactive
COc1ccc2c(CN3CCCC(C(F)(F)F)C3)cc(=O)oc2c1 (centres undefined) | inconclusive: 39.8 µM [inhibitor, single point]
COc1ccc(-c2cc3c(=O)n(CCNC(=O)c4n[nH]c5c4CCCC5)ccn3n2)cc1 | inconclusive: 31.6 µM [inhibitor, partial curve, poor fit]
CC(C)(C)OC(=O)N1CCC(c2c(C(=O)N3CCc4ccccc4C3)cnn2-c2ccc(Cl)cc2)CC1 | inactive
CCS(=O)(=O)Nc1cc(-c2cn3ccc(C)cc3n2)ccc1C | inconclusive: 31.6 µM [inhibitor, partial curve, poor fit]
CCNC(=O)c1sc2ncnc(NC[C@H]3C[C@@H]4C=C[C@H]3C4)c2c1C | inconclusive: 22.4 µM [inhibitor, single point]
CN1CCC/C1=C\C(=O)c1ccccc1 | inactive
COc1ccc(NC(=O)N2CCCCC2c2nc(-c3cnccn3)n[nH]2)cc1 (centres undefined) | inconclusive: 15.8 µM [inhibitor, partial curve, poor fit]
CN(C)C[C@@H]1CN(c2ccccn2)C[C@H]1NC(=O)Cn1c(=O)oc2ccccc21 | active: 22.4 µM
O=C(Nc1ccc(C23CC4CC(CC(C4)C2)C3)cc1)c1cccc[n+]1[O-] | inactive
COc1ccc(-c2nc(C)nc3c2CN([S+](=O)([O-])c2cccs2)CC3)cc1 | inconclusive: 79.4 µM [inhibitor, partial curve, poor fit]
Cc1ccc2cccc(NC(=O)c3cccc4ccccc34)c2n1 | inconclusive: 35.5 µM [inhibitor, partial curve, poor fit] and inconclusive: 39.8 µM [inhibitor, single point]
CC(C)(C)c1nc(N2CCOCC2)ncc1C(=O)O | inconclusive: 31.6 µM [inhibitor, partial curve, poor fit]
Cc1ncc2n1C(=O)N(C1CCN(Cc3ccc(F)cc3)CC1)C2 | inactive
Cc1cc(N2CCC(NC(=O)c3ccc(N(C)C)cc3)C2=O)ccc1F (centres undefined) | inactive
O=C(Cc1ccncc1)N1CCC2(CC1)NCCc1c2[nH]c2ccccc12 | inactive
COc1ccccc1C(=O)NNC(=O)C(=O)N1CCCCC1 | inconclusive: 39.8 µM [inhibitor, partial curve, poor fit]
COC1CCN(c2ccc(-c3nc(COc4ccccc4)no3)cn2)CC1 | active: 28.2 µM
CCOC(=O)C(=CNc1ccc(-c2ccco2)c(Cl)c1)C(=O)OCC | inconclusive: 22.4 µM [inhibitor, partial curve, poor fit]
CC(=O)Nc1c(-c2ccc(Cl)cc2)c(C)nn1-c1ccc(C(=O)NCc2cccnc2)cc1 | inactive
Cc1cc(=O)oc2cc(OCC(=O)Nc3ccc(Oc4ccccc4)cc3)ccc12 | inconclusive: 39.8 µM [inhibitor, single point]
O=C(N/N=C/c1ccccc1O)C1CC(=O)N(c2ccc(F)cc2)C1 (centres undefined) | inconclusive: 22.4 µM [inhibitor, partial curve, poor fit]

SMILES | Potency
COCC1CN(C)CC12CCN(Cc1ccc(F)c(Cl)c1)CC2 (centres undefined) | active: 28.2 µM
CCNC(=O)NC(=O)C(C)Sc1cccc2cccnc12 (centres undefined) | inconclusive: 39.8 µM [inhibitor, partial curve, poor fit]
COc1ccc(-c2nc3n(n2)C(c2ccccc2F)C(C(=O)Nc2cccnc2)=C(C)N3)cc1OC (centres undefined) | inconclusive: 25.1 µM [inhibitor, partial curve, poor fit]
Cc1cccc(-n2c(=O)c3c(c4cc(C)ccc4n3C)n(CC(=O)Nc3ccccc3C(F)(F)F)c2=O)c1 | inconclusive: 1.58 µM [inhibitor, partial curve, poor fit]
COc1cccc(CC(=O)N2CC(Oc3ccc(-c4noc(-c5ccncc5)n4)cc3)C2)c1 | inconclusive: 22.4 µM [inhibitor, single point]
CCc1noc2nc(C)n(CC(=O)O)c(=O)c12 | inconclusive: 25.1 µM [inhibitor, partial curve, poor fit]
CCOC(=O)Cn1cc2c(c1-c1ccc(Cl)cc1)c(=O)n(C)c(=O)n2C | inconclusive: 15.8 µM [inhibitor, partial curve, poor fit]
Cc1c(C(=O)NCc2ccc(Cl)cc2)sc2nc3n(c(=O)c12)CCCC3 | inactive
CCOC(=O)c1ccc(N2CCN(CC)CC2)c(NC(=O)COc2ccc(OC)cc2)c1 | inactive
c1ccc(-c2ccc3ncc(Nc4ccc(N5CCOCC5)cc4)n3n2)cc1 | inconclusive: 39.8 µM [inhibitor, single point]
CCOc1ccc(CNC(=O)c2ccc(NC(=O)c3nsc4ccccc34)cc2)cc1 | inconclusive: 25.1 µM [inhibitor, partial curve, poor fit]
N#Cc1nc(-c2ccc(F)cc2)oc1NCCN1CCOCC1 | inconclusive: 2.51 µM [inhibitor, full curve, poor fit]
COc1cccc(CNc2ccc(N3CCOCC3)c(C(=O)O)c2)c1 | inactive
O=Cc1cccc(OC(=O)Nc2ccccc2)c1 | inconclusive: 28.2 µM [inhibitor, partial curve, poor fit]
Cc1[nH]c(C)c2c(=O)[nH]ncc12 | inconclusive: 1.78 µM [inhibitor, partial curve, poor fit]
CCc1ccc(C(=O)CSc2n[nH]c(CC)n2)cc1 | inactive
CCOC(=O)c1ccc(NC(=O)N2CCN(Cc3nc(-c4ccccc4)oc3C)CC2)cc1 | inactive
O=C(c1cc(NC2CCCCCC2)nc2ccccc12)N1CCOCC1 | inconclusive: 28.2 µM [inhibitor, partial curve, poor fit]
O=c1[nH]c(C2CCCN(CC3CCCCC3)C2)nn1-c1ccccc1 (centres undefined) | inconclusive: 14.1 µM [inhibitor, partial curve, poor fit]
Cn1cnc2cc(-c3cccc(F)c3)cc(C(=O)NCc3cccnc3)c21 | inconclusive: 35.5 µM [inhibitor, single point]
CC(C)(C)N1CC(C(=O)NCCCc2ccc(Cl)cc2)CC1=O (centres undefined) | inactive
Cc1cccc(C)c1OCCCCn1c(C2CC(=O)N(c3ccc(F)cc3)C2)nc2ccccc21 (centres undefined) | inconclusive: 11.2 µM [inhibitor, partial curve, poor fit]
Cc1nc(CNC(=O)c2cn[nH]c2-c2ccccc2)cc(=O)[nH]1 | inactive

SMILES | Potency
CC(Sc1ccc(Br)cc1)C(=O)NC(N)=O (centres undefined) | inactive
CC1CC(C)CN(C(=O)c2ccc(-c3ccccc3)cc2)C1 (centres undefined) | inactive
COc1cc(-c2cc(C(=O)Nc3cccc(C(C)=O)c3)c3ccccc3n2)cc(OC)c1OC | inconclusive: 25.1 µM [inhibitor, partial curve, poor fit]
CC(Oc1ccc(Cl)cc1)C(=O)N1CCN(c2nccs2)CC1 (centres undefined) | inactive
O=c1cc(-c2ccncc2)oc2c(-c3ccccc3Oc3ccccc3)nccc12 | inconclusive: 28.2 µM [inhibitor, partial curve]
CCC(C)C(=O)Nc1ccc(N2CCCCC2)c2ccncc12 (centres undefined) | inconclusive: 39.8 µM [inhibitor, single point]
Cn1c(=O)c2sccc2n2c(CCC(=O)N3CCN(c4ccccc4)CC3)nnc12 | inconclusive: 15.8 µM [inhibitor, partial curve, poor fit]
COc1ccccc1CCC(=O)N1CCC2(CC1)N=C(c1ccc(Cl)cc1)NO2 | inconclusive: 20 µM [inhibitor, partial curve]
Cc1ccc(-n2nc3ccc(NC(=O)c4cc5ccccc5o4)cc3n2)cc1 | inconclusive: 1.78 µM [inhibitor, partial curve, poor fit]
CN1CC(=O)N(C2CCCNCC2)Cc2c1ncnc2N1CCCCCC1 (centres undefined) | inactive
O=C(c1cccc(F)c1)N1CCC(c2nc(C3CCOCC3)no2)C1 (centres undefined) | inactive
Fc1cccc(CN(Cc2ccco2)C2CCCC2)c1 | inactive
CS(=O)(=O)N(CC(=O)Nc1ccccc1C(=O)N1CCOCC1)c1ccc(F)c(Cl)c1 | inactive
CCOc1cc(=O)n2c(c1C(=O)NCCOC)CCCCC2 | inactive
O=C(c1cc(=O)c2ccccc2o1)N(Cc1ccccc1)Cc1ccccc1 | inactive
Cc1ccc(CNC(=O)Cn2c(C)ccc(NS(=O)(=O)c3ccccc3)c2=O)cc1 | inconclusive: 25.1 µM [inhibitor, partial curve]
CC1(C(=O)NCc2cccc(Cl)c2)CCc2cnc(N3CCOCC3)nc21 (centres undefined) | active: 35.5 µM
Cc1c(-c2ccccc2F)[nH]c2ccc(CNC(=O)CCn3cnnc3)cc12 | active: 31.6 µM
O=C(c1ccccc1O)N1CCN(S(=O)(=O)c2ccc3ccccc3c2)CC1 | inactive
CCOC(=O)c1c(N)n(-c2ccccc2CC)c2nc3ccccc3nc12 | inconclusive: 2.82 µM [inhibitor, full curve, poor fit]
Cn1c(-c2ccc(F)cc2)cc2ccccc21 | inconclusive: 28.2 µM [inhibitor, partial curve, poor fit]
CCOc1ccc(CNC(=O)CCC(=O)N2CC3CCCN3c3ccccc32)cc1 (centres undefined) | inconclusive: 14.1 µM [inhibitor, partial curve, poor fit]
CCN1CCN(C(c2cccc(F)c2)c2c(O)cc(C)n(CCOC)c2=O)CC1 (centres undefined) | inconclusive: 31.6 µM [inhibitor, single point]
